# Experimental data taken from the supplement of paper PMC9446081.
# The whole screen tested about 39,000 compounds, of which about 220 (0.56%) showed activity. The list shows a part of the results.
# System: Escherichia coli K-12 BW25113
# Test: relative growth (OD600 normalised to plate interquartile mean) (fraction); higher = less growth inhibition, active = 0.2 or less
# Details: 50 µM; LB; incubation time: overnight (16-24 h)
# 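Note: static incubation at 37 °C against the wild-type strain, values averaged over two biological replicates.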
row,Structure (SMILES),relative growth
1,CC(C)NC(=O)Nc1ccc2c(c1)C(=O)N(C)[C@@H]1CC[C@@H](CC(=O)NCc3ccc(F)cc3)O[C@@H]1CO2,inactive: 0.981
2,O=C(C[C@@H]1CC=CCC[C@@H](Cc2ccc(F)cc2)C(=O)OC[C@@H](Cc2c[nH]c3ccccc23)NC1=O)N[C@H](CO)Cc1ccccc1,inactive: 1.04
3,COc1ccc(CN(C)C[C@H]2Oc3ccc(NC(=O)C4CC4)cc3CC(=O)N([C@@H](C)CO)C[C@H]2C)cc1,inactive: 1
4,CN1CCN(C(=O)C[C@H]2C=C[C@@H](NC(=O)Cc3ccccn3)[C@@H](CO)O2)CC1,inactive: 0.986
5,Cc1noc(C)c1S(=O)(=O)Nc1ccc2c(c1)CC(=O)N([C@H](C)CO)C[C@H](C)[C@@H](CN(C)S(C)(=O)=O)O2,inactive: 1
6,C[C@@H]1CN([C@H](C)CO)C(=O)c2cc(NS(C)(=O)=O)ccc2O[C@H]1CN(C)S(=O)(=O)c1ccc(F)cc1,inactive: 1.01
7,C[C@@H]1CN([C@H](C)CO)C(=O)c2cc(NS(=O)(=O)c3ccc(F)cc3)ccc2O[C@H]1CN(C)Cc1ccc(Cl)c(Cl)c1,inactive: 1.01
8,C[C@@H]1CCCCO[C@@H](CN(C)CC2CC2)[C@@H](C)CN([C@H](C)CO)C(=O)c2cc(NS(=O)(=O)c3ccc(Cl)cc3)ccc2O1,inactive: 0.989
9,C[C@H](CO)N1C[C@H](C)[C@@H](CN(C)Cc2ccc3c(c2)OCO3)Oc2ccc(NC(=O)Nc3ccc(C(F)(F)F)cc3)cc2C1=O,inactive: 0.852
10,CCS(=O)(=O)N1CCCn2c(nc(Cn3cncn3)cc2=O)C1,inactive: 0.985
11,NC(=S)NCc1ccco1,inactive: 1.01
12,COc1ccc(CN(C)C[C@@H]2OCCCC[C@@H](C)Oc3ccc(NC(=O)Nc4c(C)noc4C)cc3C(=O)N([C@H](C)CO)C[C@@H]2C)cc1,inactive: 0.995
13,C[C@H]1CN([C@@H](C)CO)C(=O)c2cc(NC(=O)C3CCCCC3)ccc2O[C@@H]1CN(C)Cc1ccc(Oc2ccccc2)cc1,inactive: 0.972
14,C[C@@H]1CCCCO[C@@H](CN(C)C(=O)Nc2ccc(F)cc2)[C@@H](C)CN([C@@H](C)CO)C(=O)c2cc(NC(=O)Nc3ccc(F)cc3)ccc2O1,inactive: 1.01
15,O=c1[nH]c2cc(C(F)(F)F)c(N3CCOCC3)cc2n(CP(=O)(O)O)c1=O,inactive: 1.03
16,Cc1noc(C)c1S(=O)(=O)Nc1ccc2c(c1)C(=O)N([C@H](C)CO)C[C@@H](C)[C@H](CN(C)CC1CC1)O2,inactive: 1.01
17,COc1ccc(-c2cc(=O)c3c(OC)c(OC)c(OC)c(OC)c3o2)cc1,inactive: 0.933
18,O=c1ncccn1[C@H]1O[C@H](CO)[C@@H](O)[C@@H]1O,inactive: 0.636

row,Structure (SMILES),relative growth
1,C[C@@H]1CCCCO[C@H](CN(C)C(=O)C2CCCCC2)[C@@H](C)CN([C@@H](C)CO)C(=O)c2cc(NC(=O)Nc3ccccc3)ccc2O1,inactive: 1.01
2,C[C@@H]1CN([C@H](C)CO)C(=O)c2cc(NC(=O)Nc3cccc4ccccc34)ccc2O[C@H]1CN(C)Cc1ccc(C(=O)Nc2ccccc2N)cc1,inactive: 0.997
3,C[C@H]1CN([C@@H](C)CO)C(=O)Cc2cc(NC(=O)c3ccncc3)ccc2O[C@H]1CN(C)Cc1ccc(C(=O)O)cc1,inactive: 0.959
4,CN[C@@H]1[C@H](O[C@H]2[C@H](O[C@@H]3[C@@H](O)[C@H](O)[C@@H](NC(=N)N)[C@H](O)[C@H]3NC(=N)N)O[C@@H](C)[C@]2(O)CO)O[C@@H](CO)[C@H](O)[C@H]1O.CN[C@@H]1[C@H](O[C@H]2[C@H](O[C@@H]3[C@@H](O)[C@H](O)[C@@H](NC(=N)N)[C@H](O)[C@H]3NC(=N)N)O[C@@H](C)[C@]2(O)CO)O[C@@H](CO)[C@H](O)[C@H]1O,active: 0.11
5,C[C@@H]1CN([C@H](C)CO)C(=O)c2ccccc2-c2ccccc2CO[C@@H]1CN(C)C(=O)N[C@H](C)c1ccccc1,inactive: 1.01
6,C[C@H]1CN([C@@H](C)CO)C(=O)c2cccc(NS(=O)(=O)c3ccc(Cl)cc3)c2O[C@@H]1CN(C)S(=O)(=O)c1cn(C)cn1,inactive: 0.975
7,C[C@@H]1CN([C@@H](C)CO)C(=O)c2cc(NC(=O)Nc3ccc(F)cc3)ccc2O[C@H]1CN(C)S(=O)(=O)c1cn(C)cn1,inactive: 1.02
8,C[C@@H]1CCCCO[C@H](CN(C)C(=O)Nc2ccc3c(c2)OCO3)[C@H](C)CN([C@@H](C)CO)C(=O)c2cc(NC(=O)Nc3ccccc3)ccc2O1,inactive: 1.02
9,C[C@@H]1CCCCO[C@@H](CN(C)S(C)(=O)=O)[C@H](C)CN([C@H](C)CO)C(=O)c2cc(NS(=O)(=O)c3cn(C)cn3)ccc2O1,inactive: 0.996
10,Cl.Cl.Fc1ccc(C(c2ccc(F)cc2)N2CCN(CC=Cc3ccccc3)CC2)cc1,inactive: 0.939
11,CCCC#Cc1ccc2c(c1)O[C@@H](CN(C)Cc1ccc3c(c1)OCO3)[C@@H](C)CN([C@@H](C)CO)S2(=O)=O,inactive: 1.01
12,Cc1noc(C)c1S(=O)(=O)Nc1ccc2c(c1)C(=O)N([C@H](C)CO)C[C@H](C)[C@H](CN(C)Cc1ccc(Cl)c(Cl)c1)OCCCC[C@@H](C)O2,inactive: 0.981
13,Cc1noc(C)c1S(=O)(=O)N(C)C[C@@H]1Oc2ccc(NC(=O)CCCN(C)C)cc2CC(=O)N([C@@H](C)CO)C[C@H]1C,inactive: 0.986
14,C[C@H]1CN([C@@H](C)CO)C(=O)c2cccc(NC(=O)C3CCCCC3)c2O[C@@H]1CN(C)Cc1ccc(C(F)(F)F)cc1,inactive: 0.935
15,C=CCOC(=O)O[C@H]1[C@@H](OC)O[C@H](COC(=O)NCCCCCC(=O)NO)[C@@H](OC(=O)[C@H](CC=C)Cc2cccc(Br)c2)[C@@H]1OC(=O)[C@H](CC=C)Cc1ccccc1,inactive: 1
16,C[C@@H]1CCCCO[C@H](CN(C)S(=O)(=O)c2ccccc2)[C@H](C)CN([C@@H](C)CO)C(=O)c2cc(NC(=O)Nc3cccc4ccccc34)ccc2O1,inactive: 1.05
17,COc1ccc(NC(=O)Nc2ccc3c(c2)C(=O)N([C@@H](C)CO)C[C@@H](C)[C@H](CN(C)C(=O)Nc2ccccc2)OCCCC[C@H](C)O3)cc1,inactive: 1.04
